Of roughly 21,000 targets only a part is listed; those with the largest changes were picked by preference.
Compound: Cc1cc(ccc1-c1ccccc1)C(=O)N1CCCN(CC1)C(=O)CCl [compound 10]
Test: probe-labelled cysteine peptide fold change vs DMSO (competition) (log2 fold change); higher = less target engagement (more negative = stronger competition)
Settings: THP-1, incubation time: 4 h
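Note: competitive profiling in live THP-1 cells: cysteine peptides tagged with an iodoacetamide desthiobiotin (IA-DTB) probe, intensity after compound treatment relative to DMSO-treated cells.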

Sequence of UniProt P50336 (P50336 whole entry, looked up): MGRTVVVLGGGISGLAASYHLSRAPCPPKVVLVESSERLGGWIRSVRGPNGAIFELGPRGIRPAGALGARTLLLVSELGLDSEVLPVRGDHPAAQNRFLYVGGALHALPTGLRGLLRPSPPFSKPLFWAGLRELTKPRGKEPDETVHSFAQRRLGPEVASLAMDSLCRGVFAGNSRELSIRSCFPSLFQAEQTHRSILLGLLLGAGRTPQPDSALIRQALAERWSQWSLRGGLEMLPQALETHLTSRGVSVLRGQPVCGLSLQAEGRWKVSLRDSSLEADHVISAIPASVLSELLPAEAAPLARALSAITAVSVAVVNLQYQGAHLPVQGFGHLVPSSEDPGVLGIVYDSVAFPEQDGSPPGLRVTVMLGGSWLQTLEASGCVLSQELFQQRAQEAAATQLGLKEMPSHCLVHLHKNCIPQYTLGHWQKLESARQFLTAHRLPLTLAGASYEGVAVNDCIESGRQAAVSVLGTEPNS

For “PPOX_P50336_418_NCIPQYTLGHWQK (UniProt P50336)”, the “probe-labelled cysteine peptide fold change” value (10 µM) was -0.0557 and the “probe-labelled cysteine peptide fold change” value (50 µM) was -0.474.

Source: the supplement of paper PMC12067093, “Discovery and optimisation of a covalent ligand for TRIM25 and its application to targeted protein ubiquitination” (Chemical Science, 2025)
